From PubChem BioAssay AID686978 (National Center for Advancing Translational Sciences (NCATS), 2013)
Out of some 420,000 compounds screened, about 64,000 (15%) were called active. Inconclusive means that the source gave no clear call. Such entries were picked first, then a sample of the others. Calls follow the shape of the dose curve; as a rule, active = well fitted inhibition curve with a large enough effect; inconclusive = small, poorly fitted or top-dose-only effect; inactive = flat fitted curve, though single readings scatter. No potency is given beside an inconclusive call; the fits are too rough.

Assay: qHTS for Inhibitors of human tyrosyl-DNA phosphodiesterase 1 (TDP1): qHTS in cells in absence of CPT; also: nearly all actives have a fitted effect of over 55% in size
Conditions: DT40 Tdp1-/- hTDP1 cells, no CPT, ATP luminescence, 48 h; activity change, negative = growth inhibition: at 46.2 µM (top of the series) unless noted
Procedure, shortened: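 DT40 Tdp1-/-;hTDP1 cells, no CPT (DMSO vehicle only), 400 cells/well; compounds pin-transferred; ≥48 hr, 37 °C; CellTiter-Glo 30 min RT dark, luminescence read.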
% is scaled to controls: 0 for no effect and ±100 for the full control effect; potency is read from the fitted curve at half-maximal effect; tags tell the direction and shape of the fitted curve.

| SMILES | Potency | activity change, negative = growth inhibition |
| --- | --- | --- |
| O=C(NCCc1ccc(Cl)cc1)c1ccc2c(c1)N(Cc1ccccc1)CCS2 | inconclusive [inhibitor, single point] |  |
| O=C(c1cccs1)N1CCN=C1SCc1ccc(Cl)cc1 | inconclusive [inhibitor, single point] |  |
| O=C(Nc1ccc(N2CCCC2)c(Cl)c1)c1ccco1 | inconclusive [inhibitor, single point] |  |
| Cc1cc2oc(=O)cc(CN3CCCCC3)c2cc1C(C)C | inconclusive [inhibitor, single point] |  |
| CCOc1ccc(N2C(=O)CC(Cc3ccc(Br)cc3)C2=O)cc1 (centres undefined) |  | inactive: -25.8% |
| CCOC(=O)C1=CC[C@@H](c2ccc([N+](=O)[O-])cc2)N(S(=O)(=O)c2ccc(C)cc2)[C@H]1c1ccccc1 | inconclusive [inhibitor, partial curve] |  |
| O=C(CCC1CCCC1)N1CCN(C(=O)COc2ccccc2)CC1 | inconclusive [inhibitor, single point] |  |
| COc1ccc(N=C2SC(C(=O)N3CCN(c4ccc([N+](=O)[O-])cc4)CC3)CC(=O)N2C)cc1 (centres undefined) | inconclusive [inhibitor, partial curve, poor fit] |  |
| O=C(CSc1nc2cc(Cl)ccc2o1)NC1CC1 |  | inactive: -22.3% |
| Cc1cccc(C(=O)N2CCNC(=O)C2CC(=O)Nc2cccc(Cl)c2)c1 (centres undefined) |  | inactive: 2.42% |
| CC1CCCCC1NC(=O)COC(=O)c1c2c(nc3ccccc13)/C(=C/c1ccco1)CC2 (centres undefined) | active: 14.6 µM |  |
| CCOc1ccc(C(=O)C(C)OC(=O)C2CCN(c3ccc(C(F)(F)F)cn3)CC2)cc1 (centres undefined) | active: 23.1 µM |  |
| CCOc1ccc(C2NC(=O)NC(C)=C2C(=O)OCc2ccccc2)cc1 (centres undefined) | inconclusive [inhibitor, partial curve, poor fit] |  |
| O=C(CC1SC(=O)N(c2ccccc2)C1=O)Nc1ccc(Cl)cc1 (centres undefined) | active: 20.6 µM |  |
| COc1ccc(-n2c(=O)[nH]c3cc(C(=O)NCCc4ccc(OC)c(OC)c4)ccc3c2=O)c(OC)c1 | inconclusive [inhibitor, single point] |  |
| COc1ccc(OC)c2sc(NC(=O)c3ccc(S(=O)(=O)N(C)C)cc3)nc12 | inconclusive [inhibitor, single point] |  |
| CCOc1ccc(NC(=O)Cn2c(CCC(=O)O)ccc2-c2ccc(Cl)cc2)cc1 |  | inactive: -4.17% |
| CC1C(=O)N(Cc2cn(CC3CCCCC3)nn2)CCS(=O)(=O)N1Cc1ccc(-c2ccccc2)cc1 (centres undefined) | active: 14.6 µM |  |
| CC(C)c1ccc(C2=CC(c3cccc(Cl)c3)n3ncnc3N2)cc1 (centres undefined) | active: 23.1 µM |  |
